According to PubChem BioAssay AID463173 (ICCB-Longwood Screening Facility, Harvard Medical School, 2010):
The campaign covered roughly 52,000 compounds. About 1,700 (3.3%) were called active. Cut-off read from the data, not from the text of the source: active = survival mostly below about 52% (no sharp cut-off); inactive = mostly above about 56%. The list shows a part of the results.

test system: Wild type; assay: growth inhibition of S. aureus wild type versus tarO mutant, primary screen, teichoic acid synthesis inhibitors, RN4220, OD600 (AID 463173); conditions: S. aureus RN4220 wild type/DeltatarO growth, OD600, 18 h, active compounds read low, screened at 18.75 µg/mL (by protocol)

| SMILES | survival |
| --- | --- |
| Cc1ccc(CNC(=O)c2ccc(CS(=O)(=O)Cc3ccc(C)cc3)o2)cc1 | inactive: 22% |
| Cc1nn(-c2ccccc2)c2c1N(CC(=O)N1CCN(c3ccccc3F)CC1)C(=O)CS2 | inactive: 115% |
| CCN(CC)c1ccc(C2Nc3ccccc3-c3cc(C)nn32)cc1 (stereo not drawn) | active: -1% |
| Cc1ccc(S(=O)(=O)c2nc(-c3ccc(F)cc3)oc2N2CCN(c3ccccc3)CC2)cc1 | inactive: 115% |
| O=S(=O)(c1ccccc1)c1ccc(N2CCCCC2)cc1 | inactive: 103% |
| COc1ccc(C2(CNC(=O)C(=O)Nc3ccccc3C)CCCC2)cc1OC | inactive: 86% |
| COc1ccc(CNC(=O)c2cccn2-c2nnc(N3CCCC3)s2)c(OC)c1 | inactive: 81% |
| CCCCN(CCCNC(=O)c1cc(Nc2ccccc2OC)nc2ccccc12)c1ccccc1 | inactive: 89% |
| CCCC12CCC(C(=O)O)(CC1)CC2 | inactive: 118% |
| Cc1ccc(OCCCn2c(-c3ccc(Cl)cc3)nc3ccccc3c2=O)c(C)c1 | inactive: 67% |
| Clc1ccc(-n2c(Cc3ccccc3)nnc2SCc2nc(-c3cccs3)no2)cc1 | inactive: 91% |
| COc1ccc(NC(=O)c2oc3ccccc3c2NC(=O)C2CCCCC2)c(OC)c1 | inactive: 78% |
| Nc1c(C(=O)Nc2ccccc2)sc2nc3c(cc12)CN(Cc1ccccc1)CC3 | inactive: 64% |
| Cc1ccc(NC(=O)C2CCCN(S(=O)(=O)c3c(C)noc3C)C2)cc1 (stereo not drawn) | inactive: 126% |
| CCOC(=O)c1scc(-c2ccc(C)cc2)c1S(=O)(=O)Nc1cc(OC)ccc1OC | inactive: 76% |
| CCOc1cc(C#N)c(-n2nnc3c(sc4nc(C)cc(C)c43)c2=O)cc1OCC | inactive: 71% |
| CCCCN(C)C(=O)c1ccc2c(c1)N(Cc1cccc(F)c1)C(=O)c1ccccc1S2 | inactive: 69% |
| Cc1cc(C)c(/C=C/c2onc(C)c2S(=O)(=O)N2CCC(C(=O)NCCc3ccccc3)CC2)c(C)c1 | inactive: 70% |
| Cc1cccc(N(CC(=O)NCCSCc2ccccc2)S(=O)(=O)c2ccccc2)c1C | inactive: 73% |
| O=C(Cn1c(=O)c2cccn2c2ccccc21)NCc1ccccc1F | inactive: 113% |
| COC(=O)c1ccc(NC(=O)Cn2cnc3c2c(=O)n(C)c(=O)n3C)cc1 | inactive: 73% |
| CCc1cccc(C)c1NC(=O)C1CCCN1S(=O)(=O)c1cccc2nsnc12 (stereo not drawn) | inactive: 65% |

| SMILES | survival |
| --- | --- |
| CCCC(=O)N1CCN(c2nc3ccc(F)cc3s2)CC1 | inactive: 73% |
| CCn1c(=O)c(=O)n(CC)c2cc(S(=O)(=O)Nc3ccc(C)cc3)ccc21 | inactive: 111% |
| O=C(Nc1ccccc1)c1snc2c(=O)[nH]cnc12 | inactive: 107% |
| Cc1ccc(C(=O)c2cn(Cc3ccccc3)c3nc(C)ccc3c2=O)cc1 | inactive: 74% |
| Cc1nc(N2CCCC2)c2c(C(=O)N3CCN(c4cc(Cl)ccc4C)CC3)c(C)oc2n1 | inactive: 99% |
| COc1cc(S(=O)(=O)N(Cc2cccnc2)Cc2ccco2)ccc1-n1cnnn1 | inactive: 107% |
| CCN(CC)CCNc1nc2c(c(=O)[nH]c(=O)n2C)n1Cc1ccccc1Cl | inactive: 110% |
| COc1cc(OC)c(NC(=O)c2cc3c(=O)oc4ccc(C)cc4c3s2)cc1Cl | inactive: 87% |
| Cn1c(CCCCN)nc2ccccc21 | inactive: 98% |
| Cc1ccc(-n2ncc3c(NCCO)ncnc32)cc1Cl | inactive: 69% |
| Cc1cc(NC(=O)c2cc(-c3ccc(Cl)cc3)on2)n(-c2ccccc2)n1 | inactive: 81% |
| COc1ccc(-c2cc(C(=O)Nc3cccnc3)no2)cc1OC | inactive: 66% |
| CC(C)c1nc2sc3c(c2c(=O)n1N)CC(C)(C)OC3 | inactive: 105% |
| COc1ccc(CNC(=O)Cc2ccc(NC(=O)N3CCSc4ncccc43)cc2)cc1OC | inactive: 75% |
| COC(=O)c1cc2oc3ccccc3c2n1CC(=O)Nc1ccc(C)c(F)c1 | inactive: 86% |
| COc1ccc(S(=O)(=O)Nc2cccc(-c3ccc(N4CCC(C)CC4)nn3)c2)c(OC)c1 | inactive: 63% |
| CCOc1ccc(NC(=O)Cn2c(=O)n(-c3cccc(Cl)c3)c(=O)c3c2c2cc(C)ccc2n3C)cc1 | inactive: 139% |
| COc1cc(NC(=O)c2ccc3oc(=O)c(S(=O)(=O)c4ccccc4)cc3c2)cc(OC)c1 | inactive: 84% |
| COc1c(C)cc(Br)cc1C(=O)Nc1ccc(-c2nc3ncccc3o2)cc1 | inactive: 58% |
| Cc1cccc(C(=O)N2CCc3cc(CNC(=O)COc4ccc(Cl)cc4)ccc32)c1 | inactive: 53% |
| Cc1cc(C(F)(F)F)c2c(N)c(C#N)sc2n1 | inactive: 116% |
| CCOc1cccc(C2c3[nH]c4ccccc4c3CCN2C(=O)CSc2ccccc2)c1 (stereo not drawn) | inactive: 83% |

| SMILES | survival |
| --- | --- |
| O=C(CN1C(=O)c2ccccc2C1=O)Nc1ccccc1C(=O)N1CCCC1 | inactive: 104% |
| COc1ccc(NC(=O)Cn2c(=O)n(CCc3ccccc3)c(=O)c3c4c(sc32)CCCC4)cc1 | inactive: 97% |
| Cc1ccc(N2C(=O)CSC23C(=O)N(Cc2ccccc2F)c2ccccc23)cc1F (stereo not drawn) | inactive: 77% |
| CCOC(=O)c1c(NC(=O)c2nc(SCC)ncc2Cl)sc2c1CCCC2 | inactive: 91% |
| CC(C)c1ccc(NC(=O)C2CCN(S(=O)(=O)c3cccc4nonc34)CC2)cc1 | inactive: 114% |
| Cc1ccccc1Nc1c(-c2ccc(Cl)cc2)nc2c(C)cccn12 | inactive: 73% |
| CCSc1nnc2c(n1)OC(c1cc(OC)c(OC)c(OC)c1)Nc1ccccc1-2 (stereo not drawn) | inactive: 65% |
| CC(C)=NNC(=O)c1nnn(-c2nonc2N)c1CN1CCOCC1 | inactive: 108% |
| CCOC(=O)c1c(C)[nH]c(C)c1S(=O)(=O)NCC(=O)Nc1ccc(C)c(N(C)C)c1 | inactive: 53% |
| CCOc1cc(CNC(=O)Cn2c(=O)c3cccn3c3ccc(F)cc32)cc(OCC)c1OCC | inactive: 97% |
| COc1cc2c(=O)c(C(=O)c3ccc(C)c(C)c3)cn(Cc3ccc(F)cc3)c2cc1OC | inactive: 85% |
| CCOc1ccccc1NC(=O)c1ccc2c(c1)CCN2S(=O)(=O)c1ccc(C)cc1 | inactive: 97% |
| Cc1ccccc1NC(=O)CSc1cn(CC(=O)N2CCCCCC2)c2ccccc12 | inactive: 91% |
| Cc1nc(SCC(=O)Nc2ccccc2C)cc(-c2ccccc2)n1 | inactive: 78% |
| CCC(CC)c1nn2c(=O)cc(COc3ccc(NC(=O)c4ccccc4C)cc3)nc2s1 | inactive: 88% |
| Cc1ccccc1NC(=O)c1ccc2[nH]c(C)c(C)c2c1 | inactive: 124% |
| CCC1CN(S(=O)(=O)c2cc(-c3cc(C)no3)ccc2C)c2cc(Cl)ccc2O1 (stereo not drawn) | inactive: 70% |
| COc1cc(NC(=O)CC2C(=O)OCCN2Cc2ccccc2)cc(OC)c1 (stereo not drawn) | inactive: 140% |
| COc1cc(NS(=O)(=O)c2ccc(NC(=O)c3cccc(F)c3)cc2)nc(OC)n1 | inactive: 93% |
| COc1ccc(C(=O)NCC(c2cccnc2)N2CCN(c3ccccc3)CC2)cc1 (stereo not drawn) | inactive: 84% |
| CCCc1nn2c(=O)cc(COC(=O)c3cccc(NC(=O)c4cccs4)c3)nc2s1 | inactive: 73% |
| CCc1cccc(C)c1NC(=O)CCS(=O)(=O)c1cc(Br)cc2c1N(C(=O)C1CC1)CC2 | inactive: 85% |

| SMILES | survival |
| --- | --- |
| COc1cccc(Cn2c(=O)cc(C)c3c(C)nn(C)c32)c1 | inactive: 85% |
| O=C(CCCCn1c(=O)c2ccccc2n(CC(=O)Nc2cccc(C(F)(F)F)c2)c1=O)NCc1ccc2c(c1)OCO2 | inactive: 86% |
| O=C(Nc1ccc(C(=O)OCc2cc(=O)n3c4c(sc3n2)CCCC4)cc1)c1ccc(F)cc1 | inactive: 78% |
| CCc1nn2c(-c3ccccc3OC)ccnc2c1-c1ccccc1 | active: -12% |
| Cc1c(C(=O)NCc2ccc(Cl)cc2)sc2nc3n(c(=O)c12)CCCCC3 | inactive: 81% |
| COc1ccc(S(=O)Cc2ccc(C(=O)N3CCN(c4cccc(C)c4C)CC3)o2)cc1 (stereo not drawn) | inactive: 77% |
| Cc1c(Cl)cccc1NC(=O)Cn1c(=O)n(Cc2ccco2)c(=O)c2sc3ccccc3c21 | inactive: 130% |
| Cc1ccc(-n2nnc(-c3nc(-c4cccs4)no3)c2N)cc1C | inactive: 100% |
| Cc1ccc(Cl)cc1NC(=O)COC(=O)CC(C)(C)CC1=NS(=O)(=O)c2ccccc2N1 | inactive: 56% |
| O=C(NCCc1ccccc1)C(=O)NCC(c1ccco1)S(=O)(=O)c1cccs1 (stereo not drawn) | inactive: 75% |
| Cc1ccccc1NC(=O)c1ccc(F)c(S(=O)(=O)N2CCN(c3ccccc3F)CC2)c1 | inactive: 82% |
| COc1ccc(-c2nc(CSc3nncn4c3cc3oc(C)cc34)c(C)o2)cc1 | inactive: 89% |
| CCOC(=O)c1cnc2ccccc2c1NCCCN(C)C | inactive: 112% |
| COc1cc(NC(=O)CN2C(=O)c3ccccc3Sc3ccc(C(=O)N4CCCC4)cc32)cc(OC)c1 | inactive: 81% |
| COc1ccc(OC)c(CCNC(=O)c2ccc3c(c2)c(C)c(C)n3Cc2ccccc2)c1 | inactive: 85% |
| CCOC(=O)c1ccccc1NC(=O)CN1CCCN(Cc2cc(C)ccc2C)S1(=O)=O | inactive: 131% |
| CCOC(=O)c1[nH]c2ccccc2c1NC(=O)c1ccccc1F | inactive: 78% |
| CC(C)CC(C(N)=O)N1C(=O)c2ccccc2C1=O (stereo not drawn) | inactive: 108% |
| CCN1CCN(CCCNC(=O)CS(=O)(=O)Cc2nc(-c3cccc(OC)c3)oc2C)CC1 | inactive: 81% |
| Cc1oc2ncnc(N3CCCCC3)c2c1C(=O)NCC1CCN(Cc2cccc(F)c2)CC1 | active: -6% |
| COc1cccc2c1cc1c(=O)n(CC(=O)N3CCCCC3)nc(C)n12 | inactive: 88% |
| Cc1ccc(C(=O)Nc2ccc(C(=O)O)cc2)cc1S(=O)(=O)Nc1ccccc1 | inactive: 73% |
